# From the supplement of paper PMC10600219
# Counter-ions that a name gives are not always drawn. The full ranking holds about 2,800 compounds; the median of “cell viability relative to vehicle” is about 1.1, and the lowest 2% start at about 0.19. The list shows a part of the results.
# Test system: NCI-H2228 parental
# Experiment: cell viability relative to vehicle (fraction of vehicle); NCI-H2228 is an ALK-positive lung cancer line and DTP means drug-tolerant persister; higher = less growth inhibition
# Conditions: 100 nM; treatment time 6 days
# Summary of the method: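 Each value is viability relative to vehicle-treated cells, measured as ATP with the CellTiter-Glo 3D Cell Viability Assay. Parental NCI-H2228 cells and drug-tolerant persisters (1000 nM targeted drug, 13 days) in 384-well plates received the 3114-agent TargetMol anti-cancer compound library at 100 nM, or DMSO, and were read 6 days later.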
row,Structure (SMILES),cell viability
1,O=C(Nc1ccc(Cl)cc1)C1CCCN(C(=O)c2cccc(-c3ccco3)c2)C1 (configuration not stated),1.08
2,CC(=O)Nc1ccc(NC(=S)NC(=O)c2ccc(C(C)(C)C)cc2)cc1 [Tenovin-1],1.05
3,O=C(NOCCO)c1ccc2cncn2c1Nc1ccc(I)cc1F,0.979
4,CCOc1cc(C(=O)N2CCC(N3CCN(C)CC3)CC2)ccc1Nc1ncc2c(n1)N(C1CCCC1)c1ccccc1C(=O)N2C,1.23
5,O=c1cc(-c2ccc(O)c(O)c2)oc2cc(O)cc(O)c12 [Luteolin],1.2
6,Nc1ncn([C@H]2C[C@H](O)[C@@H](CO)O2)c(=O)n1 [Decitabine],0.65
7,O=C(Cc1ccc(-c2ccc(OCCN3CCOCC3)cc2)cn1)NCc1ccccc1,0.329
8,Cc1cc(Nc2ccc(NC(=O)c3ccc(Nc4ccnc5ccccc45)cc3)cc2)nc(N)n1,1.1
9,CCCC(=O)O [Butyric  acid],1.08
10,C[C@]12CC[C@@H]3c4ccc(O)cc4CC[C@H]3[C@@H]1CC[C@@H]2OC(=O)CCC1CCCC1 [Depofemin],1.05
11,C[C@H](NC(=O)[C@@H](O)c1cc(F)cc(F)c1)C(=O)N[C@@H]1C(=O)N(C)c2ccccc2-c2ccccc21,0.853
12,CN1CCN(c2ccc(-c3ccncc3-c3cc(F)c(O)c(F)c3)cc2)CC1,1.09
13,O=c1cc(N2CCOCC2)oc2c1ccc1ccccc12,0.97
14,CCOC(=O)C(C)(C)Oc1ccc(Cl)cc1 [Clofibrate],1.14
15,CN1CCC(=C2c3ccccc3CC(=O)c3sccc32)CC1 [Ketotifen fumarate],1.1
16,COc1ccccc1N1CCN(CC(O)COc2cccc3ccccc23)CC1 (configuration not stated) [Naftopidil],1.13
17,CC[C@H](CC[C@@H](C)[C@H]1CC[C@H]2[C@@H]3CC=C4C[C@@H](O)CC[C@]4(C)[C@H]3CC[C@]12C)C(C)C [Beta-Sitosterol],1.14
18,O=C(O)CC[C@H]1CC[C@@](c2cc(F)ccc2F)(S(=O)(=O)c2ccc(Cl)cc2)CC1,1.06
19,C/C=C1\NC(=O)[C@H]2CSSCC/C=C/[C@H](CC(=O)N[C@H](C(C)C)C(=O)N2)OC(=O)[C@H](C(C)C)NC1=O [Romidepsin],0.0515
20,CCCN(CCC)C(=O)C(CCC(=O)O)NC(=O)c1ccccc1 (configuration not stated) [Proglumide],1.07
21,COc1cc(OC)c(C(=O)CCCN2CCCC2)c(OC)c1 [Buflomedil hydrochloride],0.975

row,Structure (SMILES),cell viability
1,CC(=O)NCCc1c[nH]c2ccc(O)cc12 [N-Acetyl-5-hydroxytryptamine],0.888
2,CC1(C)CC(=O)C2=C(C1)NC(=S)NC2c1cccc(O)c1 (configuration not stated) [Dimethylenastron],1.08
3,O.O.O.O.O=C([O-])CC(O)(CC(=O)[O-])C(=O)[O-].[Li+].[Li+].[Li+] [Lithium citrate tribasic tetrahydrate],0.981
4,O=c1ccc2ccc(O)c(O)c2o1 [Daphnetin],1.08
5,OCC1=C[C@@H](O)[C@@H]2C=CO[C@@H](O[C@@H]3O[C@H](CO)[C@@H](O)[C@H](O)[C@H]3O)[C@H]12 [Aucubin],1.14
6,CC(C)(C)C(=O)OCOP(=O)(COCCn1cnc2c(N)ncnc21)OCOC(=O)C(C)(C)C [Adefovir dipivoxil],1.11
7,COc1ccc(CCNCc2ccc(OCc3ccc(Cl)nc3)c(OC)c2)cc1OC [SBE 13 hydrochloride],1.11
8,Cn1c(=O)cnn(CCCCN2CCN(c3ncccn3)CC2)c1=O [Eptapirone],1.04
9,O=S(=O)(c1cccc2c(I)cccc12)N1CCCNCC1 [ML-7 hydrochloride],0.984
10,C[C@@H]([C@H](C)O)[C@H](N)C(=O)O [(4S)-4-Hydroxy-L-isoleucine],1
11,O=C(Nc1ccc(O)cc1)c1ccccc1O [Osalmid],1.11
12,C=CC(=O)Nc1cccc(Nc2nc(Nc3ccc(N4CCN(C(C)=O)CC4)cc3OC)ncc2C(F)(F)F)c1 [Rociletinib],1.07
13,CS(=O)(=O)CCNCc1ccc(-c2ccc3ncnc(Nc4ccc(OCc5cccc(F)c5)c(Cl)c4)c3c2)o1 [Lapatinib Ditosylate],1.15
14,CS(=O)(=O)CCNCc1ccc(-c2ccc3ncnc(Nc4ccc(OCc5cccc(F)c5)c(Cl)c4)c3c2)o1 [Lapatinib],1.09
15,Nc1c(Br)cc(Br)cc1CN[C@H]1CC[C@H](O)CC1 [Ambroxol],0.975
16,COC(=O)c1sccc1S(=O)(=O)Nc1ccc(Nc2ccccc2)cc1OC,1.02
17,Cc1cccc(-c2[nH]ncc2-c2ccnc3ccccc23)n1,1.18
18,CC(C)(Sc1cc(C(C)(C)C)c(O)c(C(C)(C)C)c1)Sc1cc(C(C)(C)C)c(O)c(C(C)(C)C)c1 [Probucol],0.949
19,CCOc1ccc2c(-c3cccc(F)c3)nn(CC(=O)N(C)c3ccc4nc(C)oc4c3)c(=O)c2c1,0.997
20,O=c1cc(N2CCNCC2)oc2c(-c3ccccc3)cccc12,0.836
21,COc1cc2ncc(-c3ccccc3)nc2cc1OC [Tyrphostin AG 1296],1.07

row,Structure (SMILES),cell viability
1,Nc1ccc(Cl)cc1C(=O)O [2-Amino-5-chlorobenzoic acid],1.16
2,CCC[C@H](Nc1nc(-c2ccc(NC(=O)NCC)c(OC)c2)ncc1C)c1cccnc1 [Lexibulin],0.337
3,COc1cc2ncnc(Nc3ccc(Oc4ccccc4)cc3C)c2cc1OC,0.96
4,COc1ccc(C(=O)Nc2sc3c(c2C(N)=O)CCCC3)cc1OC,1.02
5,O=C(O)CCC(=O)Nc1ccc(Br)cn1 [Bikinin],1.15
6,CC(=O)N[C@@H](CCC(N)=O)C(=O)O [Aceglutamide],0.87
7,N[C@@H](Cn1ccc(=O)c(O)c1)C(=O)O [L-Mimosine],1.07
8,CC(=O)NO [Acetohydroxamic acid],1
9,COc1cc(Nc2ncc(F)c(Nc3ccc4c(n3)NC(=O)C(C)(C)O4)n2)cc(OC)c1OC [R406 free base],0.721
10,COc1cc(Nc2ncc(F)c(Nc3ccc4c(n3)NC(=O)C(C)(C)O4)n2)cc(OC)c1OC,0.974
11,CC(C)(Oc1ccc(Cl)cc1)C(=O)O [Clofibric acid],1.14
12,Cc1ccc(NC(=O)c2ccc(CN3CC[C@H](N(C)C)C3)c(C(F)(F)F)c2)cc1Nc1nccc(-c2cncnc2)n1 [Bafetinib],1.12
13,CS(=O)(=O)c1cccc(CNc2nc(Nc3ccc4c(c3)CCC(=O)N4)ncc2C(F)(F)F)c1,0.984
14,NCC1CCC(C(=O)O)CC1 (configuration not stated) [Amstat],1.24
15,CC1(C)CCC(CN2CCN(c3ccc(C(=O)NS(=O)(=O)c4ccc(NCC5CCOCC5)c([N+](=O)[O-])c4)c(Oc4cnc5[nH]ccc5c4)c3)CC2)=C(c2ccc(Cl)cc2)C1,1.2
16,COc1cc(OCc2cccc(-c3ccccc3)c2C)cc(OC)c1CN1CCCC[C@H]1C(=O)O [PD-1/PD-L1 inhibitor 1],1.09
17,Cn1c(=O)c2c(ncn2CC(=O)O)n(C)c1=O [Theophylline-7-acetic acid],0.863
18,CC(C)=CCC/C(C)=C/CC/C(C)=C/CC/C(C)=C/CC1=C(C)C(=O)c2ccccc2C1=O [Menatetrenone],1.01
19,COc1cc2ncnc(Nc3ccc(O)cc3)c2cc1OC,1.02
20,c1cc(Nc2cc(C3CC3)[nH]n2)nc(Nc2ccc3nc[nH]c3c2)n1,1.02
21,CCOC(=O)[C@H](CCc1ccccc1)N[C@@H](C)C(=O)N1CCC[C@H]1C(=O)O [Enalapril Maleate],1

row,Structure (SMILES),cell viability
1,CNC(=O)[C@H](Cc1ccccc1)NC(=O)[C@H](CC(C)C)[C@H](CSc1cccs1)C(=O)NO [Batimastat],1.08
2,C[C@]12CC[C@@H]3c4ccc(O)cc4CC[C@H]3[C@@H]1C[C@@H](O)[C@@H]2O [Estriol],1.12
3,Cc1nc(N)sc1-c1ccnc(Nc2ccc(N3CCOCC3)cc2)n1,0.988
4,Cc1noc(NS(=O)(=O)c2ccc(N)cc2)c1C [Sulfisoxazole],1.18
5,CCc1cccc2c3c([nH]c12)C(CC)(CC(=O)O)OCC3 (configuration not stated) [Etodolac],1
6,O=C1CC(c2c[nH]c3ccc(F)cc23)C(=O)N1 (configuration not stated),1.05
7,O=C(/C=C/c1ccc(O)cc1)C1=C(O)C(O)([C@@H]2O[C@H](CO)[C@@H](O)[C@H](O)[C@H]2O)C(O)=C([C@@H]2O[C@H](CO)[C@@H](O)[C@H](O)[C@H]2O)C1=O (some centres not stated) [Hydroxysafflor yellow A],1.07
8,C[C@@H]1CN(CC(=O)Nc2ccc3c(c2)Cc2cccc(-c4cc(=O)cc(N5CCOCC5)o4)c2S3)C[C@H](C)O1,1.05
9,O=C(O)c1ccccc1C(=O)Nc1ccc(-c2ccccc2)cc1 [Kartogenin],1.02
10,O=C1N=C(N2CCOCC2)CN1c1ccc(Cl)cc1,0.808
11,C=CC(=O)N1CCC[C@@H](n2nc(-c3ccc(Oc4ccccc4)cc3)c3c(N)ncnc32)C1 [Ibrutinib],1.05
12,C=CC(=O)Nc1ccc2ncnc(Nc3ccc(OCc4cccc(F)c4)c(Cl)c3)c2c1,1.09
13,CC1=C(CC(=O)O)c2cc(F)ccc2/C1=C\c1ccc([S+](C)[O-])cc1 (configuration not stated) [Sulindac],1.14
14,COc1c(OCCCN2CCOCC2)ccc2c1N=C(NC(=O)c1cnc(N)nc1)N1CCN=C21 [Copanlisib],0.649
15,O=C(Nc1ccc(C(O)(C(F)(F)F)C(F)(F)F)cc1)c1ccccc1Cl,1.06
16,C/C(=N\NC(=O)c1cccc(S(=O)(=O)N2CCOCC2)c1)c1cc(Cl)ccc1O,1.01
17,O=C(NS(=O)(=O)c1ccc(Br)s1)c1ccc(Cl)cc1Cl [Tasisulam],1.01
18,COc1ccc(CNC(=O)Nc2ncc([N+](=O)[O-])s2)cc1,0.792
19,O=C(O)c1ccc2c3c1cccc3c(=O)n1c3ccccc3nc21 [STO-609 acetate],1
